The other results are listed elsewhere or left out.
tested on: PF3D7_0420300 AP2 domain 1 (GST-tagged); assay: gcPBM binding intensity (ln(normalized median fluorescence intensity)); higher = stronger DNA binding
Summary of the method: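 The highest Masliner-normalised natural-log median intensity across replicate spots of either probe orientation is reported as binding intensity. GST-tagged P. falciparum DNA-binding domains expressed in E. coli were applied for 1 h to an Agilent 4 × 180k array of primer-extended double-stranded 36-bp intergenic genomic probes plus negative controls, and bound protein was detected with Alexa488 anti-GST antibody and scanned at 488 nm.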

Row | Sequence | gcPBM binding intensity (ln)
1 | ATTGTGTTGACGGGTGACCCTTCCAGAGAAATAGAA [CACACA_negctrl_site1362] | 9.01
2 | TTTTTTTTAATGAGAAGTACGGTCTTTCAATGTCTT [XGTACX_site6773] | 8.89
3 | TAAAAATTAAAACTGGGTACAAATTTATAGATAGCC [XGTACX_site8075] | 9.62
4 | CATTAACAAATAAATGCACACATATATATAAATAAT [CACACA_site7892] | 9.56
5 | AATTTATTAGATAGATGTACATTTTAATAAAAGTAG [XGTACX_site6819] | 9.13
6 | TCCCCTTAATTTAAAACACACAAACAAATAAGTTAG [CACACA_site5973] | 9.27
7 | ATTAATTATATATATACACACACATACACCCAAATA [CACACA_site9126] | 10
8 | TAAATACTTCGTAAAACACACAAGTAGAAAAAAAAA [CACACA_site360] | 9.42
9 | ATAATTAGTTCAATTTTTTTTTTTTTTTTTTTTTTT [CACACA_negctrl_site1371] | 9.06
10 | AAAAATATAATATATGCACACATACATACATATATA [CACACA_site7915] | 9.37
11 | TTATTTATTTATTGTTGTACACAAAATGATTCTTAA [XGTACX_site6480] | 9.02
12 | AAACAAAACAAAACATGTACACATTATATATATATA [XGTACX_site3374] | 9.41
13 | TAATAATTACAAAGAAGTACATAAAAAAAAATTTAT [XGTACX_site4684] | 9.22
14 | CTATATATATATTTCAGTACATATTAAGAATATATA [XGTACX_site4860] | 9.04
15 | TTCTAATAAATGTGTTGTACACCTTTAGCAACTATT [XGTACX_site3235] | 9.2
16 | TATATAAATATATACACACATACATACATACATATA [CACACA_site3835] | 9.74
17 | TATATATATTTATGCACACAAAATATATTATATAAT [CACACA_site5955] | 9.27
18 | AGGAAAAAAGAAAAAACACACATAAATATTTATATA [CACACA_site7446] | 9.42
19 | TATACATCATTTTTCAACAACAAAAAAAAAAAAAAT [CACACA_negctrl_site1185] | 9.11
20 | ACGTAAAATAGGGACGCATGCACAAATATTTTTAAA [TGCATGCA_site336] | 9.28
21 | ATATATATAAATACAACACACATGTAATATATAAAT [CACACA_site5766] | 9.73
22 | TAATATCATTTATGGGGTACCTCCTATTCTTATTTA [XGTACX_site1839] | 9.19

Row | Sequence | gcPBM binding intensity (ln)
23 | CGAACTGCACTTTTTAGTACTTAATAATTATTTTTT [XGTACX_site2446] | 9.35
24 | TCATATGTTAAATGATGTACATTTAATATAAATAAA [XGTACX_site900] | 9
25 | AAAAAAAACATCCTCACACATATATATATATATATA [CACACA_site5166] | 9.18
26 | AAATAAAATTATAATACATGCATACATACATATATA [TGCATGCA_site69] | 9.19
27 | TATAAATACATACGTACACACAAATATTAAAATATA [CACACA_site5129] | 9.67
28 | ATGTTACTCAGACACACACACATAAAAAAACAAAAA [CACACA_site3249] | 9.93
29 | TGTGTTAATATATGAAGTACACAATACACACTAATT [XGTACX_site5469] | 9.62
30 | TAAATTACATGAAATTGTACATGAATATTAAATATA [XGTACX_site3909] | 9.05
31 | TTCGTTATAATTGAATTTACAATATGCTTTATAATG [XGTACX_negctrl_site238] | 9.19
32 | ATATATACAAAGGATTAACACACATATTATTATATA [CACACA_site8563] | 9.55
33 | AAAATATTTATATTTACACACACATAATACATATAT [CACACA_site32] | 9.87
34 | GTGTACAGTTTTTGCACACATATAAATAAAAAAAAG [CACACA_site3599] | 9.45
35 | AATAAAGGAAATAAATAATTTATTTTGTAAAATATG [CACACA_negctrl_site97] | 9
36 | ATATATATGAATACATGTACGTATTTGTCTATGTAT [XGTACX_site8306] | 9.38
37 | CAATGTTAACATATTACACACATATGTATTTATAAT [CACACA_site5512] | 9.58
38 | GCATATATTATATATTTATTTATTTTTTTTTTTTAA [GTGCAC_negctrl_site193] | 9.13
39 | TTTATAAAATTATTTGCATGTAACAATTATAAATTG [TGCATGCA_site1026] | 8.94
40 | TTTTTTTTTCTTTCTCTTTAAATATTAATTAAAAAA [GTGCAC_negctrl_site90] | 8.93
41 | AATGTGAAATATAAATGTACATAAATATATATATAT [XGTACX_site8710] | 9.54
42 | AAAATATAAATATATTGTACTGTTATATAATAAAAT [XGTACX_site2132] | 9.21
43 | TAACTATCATGTATTACACACAATATTTATTATAGA [CACACA_site7301] | 9.45
44 | TACATATTTTTTATGTGTACATATTTTTTATGTGTG [XGTACX_site444] | 9.15

Row | Sequence | gcPBM binding intensity (ln)
45 | TTCTTTTTTCTTTATGGTACGTGTAATATATATCAA [XGTACX_site7960] | 9.47
46 | CCCAATAATTAAACAACACACATATATATATGTAAT [CACACA_site3084] | 9.66
47 | ATAAAATACAGATAAACACACATATAAACACCCATA [CACACA_site5381] | 9.92
48 | CTTTATTTTTTATACACACACAATATGTATAAATAT [CACACA_site7638] | 9.73
49 | ATAAATAAATACATATGTACATATATATATATATAT [XGTACX_site7145] | 9.17
50 | TCAGTTAATGTATATGTACACACGGGGTGTATATAT [CACACA_site9103] | 9.49
51 | ATATATATATTAAGGGGTACGTAAAAAATTGGGAAG [XGTACX_site7322] | 9.63
52 | AAATTATATCCCCTTTGTACTTACAGATCTTTATAC [XGTACX_site8163] | 9.38
53 | TAATGAGGAAAAAGTGTGTTAAGATTTTATAATTTA [GTGCAC_negctrl_site608] | 9.1
54 | TAAAAAAAAATAAATACATGCATATAATACATTATA [TGCATGCA_site518] | 9.16
55 | TATCATATAAATACATGTACATATTTGGAAAATAAT [XGTACX_site5373] | 9.3
56 | ATATATATATTAACAATACACACGTGTATACCTTAT [CACACA_site2217] | 9.49
57 | TGAACATGTTAAAATAAACACACAGCTAAGGTTTTT [CACACA_site7934] | 9.38
58 | CATATACACGAACACACACACATATATATATATATA [CACACA_site4437] | 9.84
59 | TAGTAAATAACAAAAGGAAAAATTAATGAGGCAAAA [TGCATGCA_negctrl_site526] | 9.62
60 | CATCATAGCATTCCTCGTACAAATATAAACATATCA [XGTACX_site2711] | 9.23
61 | ATGTTTTGTAAAATGATTAAATATTAAGATTCAATA [CACACA_negctrl_site1743] | 8.9
62 | CTTAGAGTATTTAAATGTACACGTTTGTATATGTAT [XGTACX_site1767] | 9.22
63 | TATGTGGCACAAAAGGGTACATATAATTTATACAGG [XGTACX_site5499] | 9.43
64 | AAACAGAATGCATATACACACATACAAAAAAGTGCA [CACACA_site6591] | 9.8
65 | TGTGTACCGATATTAAGTTTAACGTTATAAAAATAT [CACACA_negctrl_site1547] | 9.28
66 | TTTCTAAACCGGTACAGTACATATAAAAATAGAATA [XGTACX_site6662] | 9.28

Row | Sequence | gcPBM binding intensity (ln)
67 | AAAGGACAAAAAAATGCATGCCGTTAAATTATGTAC [TGCATGCA_site512] | 9.38
68 | AGTGTATTTTTATGTTGTACATGTAATATTTTTGAT [XGTACX_site541] | 9.49
69 | TATATAATATATTAATGTACGTTATATGTATTCCTT [XGTACX_site6140] | 9.42
70 | TACAGATATTCATATAAACACACATACAAATTATGT [CACACA_site7929] | 9.61
71 | TAATTCATCATATGCACACACAATACCAAAATGTGC [CACACA_site191] | 9.69
72 | CTTTTTTTTTAAATATCACACACATATAATATATTC [CACACA_site9222] | 9.42
73 | AAGCATTTCCATGGTGGTACTATACAAATAATAATT [XGTACX_site6193] | 9.27
74 | TATAAATAATGTTAAACACACATACCGATATATAAC [CACACA_site7306] | 9.66
75 | TCTCTCTTATAAAATACACACGAACAATCATATTAT [CACACA_site8065] | 9.43
76 | ATTTTTTTTTTTAAATGTACATAATATATATATAAT [XGTACX_site2686] | 9.16
77 | TATTAAACTAAATGTAGTACATACACAAACGTAATC [XGTACX_site4905] | 9.37
78 | TATTCGTGCAATAATGGTACACTTATAAATTATTCA [XGTACX_site1430] | 9.07
79 | AAAAAAATTTGTATCACACACGTATTATAAAAAAAT [CACACA_site4182] | 9.36
80 | CGAACATTATAAATGTCATTTTTTCCAACTTGATCT [GTGCAC_negctrl_site501] | 8.97
81 | GTACAAAAATAAATTGCACACATTTTAATAAAAAAA [CACACA_site2130] | 9.22
82 | TATATTTATTTATATACACACATATTTATAAATATA [CACACA_site7047] | 9.41
83 | AGATTTAAATATCATACACACTTTATCTATAATACA [CACACA_site6581] | 9.29
84 | CAAAATTGACATGACGCACACAAGTGTAGATATTTT [CACACA_site1250] | 9.31
85 | TAGTTGTTTATAACACGTTGACAGAAATGTTATGTA [GTGCAC_negctrl_site624] | 9.11
86 | AGTCTGAATAAAATTACACACATATACATATATATA [CACACA_site1780] | 9.58
87 | AAAAAAAAAAAAAAAACACACAATAAAGTAAAATTT [CACACA_site135] | 9.49
88 | ATATATAAATTTTAGTGTACATTAATTTTTTTTTTT [XGTACX_site7782] | 9.25

From the supplement of paper PMC11417369
